Measurements taken from article PMC12529666.
The list shows a part of the results, in another mix than the full data. At the low end of the ranking, values are background and their order means little. This is one part of the list.

Tests used:
[1] = biological target: AGO2 WT (phosphosite mutant background) S387D + S824A + S828D + S831D + S834A (UniProt Q9UKV8); test: RNA Bind-n-Seq (nitrocellulose filter binding and sequencing); conditions: constant regions annealed to DNA blockers; guide miR-122 5' phosphate; 30 mM Tris pH 8.0, 100 mM potassium acetate, 2 mM magnesium acetate, 0.5 mM TCEP, 0.005% NP-40, 0.01 mg/ml yeast tRNA; 3 nM AGO2-miR-122, 100 nM RNA library …; high values mean tight binding
[2] = biological target: AGO2 F182del S387D + S824A + S828D + S831D + S834A + del182-182 (UniProt Q9UKV8); test: as above; conditions: constant regions annealed to DNA blockers; guide miR-122 5' phosphate; 30 mM Tris pH 8.0, 100 mM potassium acetate, 2 mM magnesium acetate, 0.5 mM TCEP, 0.005% NP-40, 0.01 mg/ml yeast tRNA; 3 nM AGO2-miR-122, 100 nM RNA library …; high values mean tight binding

Sequence “GAGUUCUACAGUCCGACGAUCCCAACGUACUCCGCACCUGGAAUUCUCGGGUGCCAA / UGGAGUGUGACAAUGGUGUUUG / GATCGTCGGACTGTAGAACTC / TTGGCACCCGAGAATTCCA” has a binding signal (fold enrichment over input) [1] of 0.327 and a binding signal (fold enrichment over input) [2] of 2.42.
Work on “GAGUUCUACAGUCCGACGAUCCCAACAUAUUUUACACCUGGAAUUCUCGGGUGCCAA / UGGAGUGUGACAAUGGUGUUUG / GATCGTCGGACTGTAGAACTC / TTGGCACCCGAGAATTCCA” yielded a binding signal (fold enrichment over input) [1] of 0.127 and a binding signal (fold enrichment over input) [2] of 0.0795.
Work on “GAGUUCUACAGUCCGACGAUCCCAACAUGCUUUACACCUGGAAUUCUCGGGUGCCAA / UGGAGUGUGACAAUGGUGUUUG / GATCGTCGGACTGTAGAACTC / TTGGCACCCGAGAATTCCA” yielded a binding signal (fold enrichment over input) [1] of 0.109 and a binding signal (fold enrichment over input) [2] of 0.0729.
With “GAGUUCUACAGUCCGACGAUCCCAACGUAUCUUACACCUGGAAUUCUCGGGUGCCAA / UGGAGUGUGACAAUGGUGUUUG / GATCGTCGGACTGTAGAACTC / TTGGCACCCGAGAATTCCA” the binding signal (fold enrichment over input) [1] was 0.103 and the binding signal (fold enrichment over input) [2] was 0.0771.
In the case of “GAGUUCUACAGUCCGACGAUCCCAACGCACUUUGCACCUGGAAUUCUCGGGUGCCAA / UGGAGUGUGACAAUGGUGUUUG / GATCGTCGGACTGTAGAACTC / TTGGCACCCGAGAATTCCA”, the binding signal (fold enrichment over input) [1] is reported as 0.0824 and the binding signal (fold enrichment over input) [2] is reported as 0.0347.
For “GAGUUCUACAGUCCGACGAUCCCAACAUAUUCUACACCUGGAAUUCUCGGGUGCCAA / UGGAGUGUGACAAUGGUGUUUG / GATCGTCGGACTGTAGAACTC / TTGGCACCCGAGAATTCCA”, the binding signal (fold enrichment over input) [1] was 0.115 and the binding signal (fold enrichment over input) [2] was 0.0701.
“GAGUUCUACAGUCCGACGAUCCCAACGCGCCUCACACCUGGAAUUCUCGGGUGCCAA / UGGAGUGUGACAAUGGUGUUUG / GATCGTCGGACTGTAGAACTC / TTGGCACCCGAGAATTCCA” was tested, and the binding signal (fold enrichment over input) [1] was 0.131 and the binding signal (fold enrichment over input) [2] was 0.304.
